These results are taken from ChEMBL document CHEMBL1201862, “PubChem BioAssay data set” (2004).

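These data come from cells grown in 96-well plates and exposed to compound for 48 hours at five concentrations. At the GI50, growth is halved.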 Activity calls are given as the source filed them. No stated cut-off is given here; in the data, active = GI50 up to about 1.1 µM and inactive = higher. Some results are limits rather than exact numbers.

The test relates to NCI-H322M. The test is described as follows: NCI anticancer screen, dose series, 48 h.
For `COc1ccc2c(c1)c(=Cc1ccc(N(C)C)cc1)c1cc(-c3ccccc3)[n+](C)n12`, the GI50 was inactive: 1.62 µM.

`COc1nc(O)c(N)c(NC2OC(CO)C(O)C(O)C2O)n1` (centres undefined): the GI50 is inactive: > 100 µM.

On to `O=C(Nc1ccc2[nH]c(C(=O)N3CC(CCl)c4c3cc([N+](=O)[O-])c3ccccc43)cc2c1)Nc1ccc2[nH]c(C(=O)N3CC(CCl)c4c3cc([N+](=O)[O-])c3ccccc43)cc2c1` (centres undefined), for which the GI50 is inactive: > 100 µM.

For `Cc1cc(C)c([O-])c(-[n+]2c(-c3ccccc3)cc(-c3ccccc3)cc2-c2ccccc2)c1`, the GI50 is inactive: 6.22 µM.

For the compound `COc1ccc(NC(=O)C(=O)Cc2nc3ccc(C(=O)c4ccccc4)cc3nc2O)c([N+](=O)[O-])c1`, the GI50 is inactive: 30.5 µM.

For the compound `CCOc1ccccc1NC(=O)C(=O)CC(=O)c1sc(Nc2nnc(-c3ccc(Cl)c(Cl)c3)o2)nc1C`, the GI50 is inactive: > 100 µM.

For `Nc1nccc(NCC2(CO)CC(CCc3ccccc3)C2)n1` (centres undefined), the GI50 was inactive: 19.1 µM.

On to `CC(C)N(C(=O)C12C3C4C5(C(=O)O)C(C1C35I)C42C(=O)O)C(C)C` (centres undefined), for which the GI50 was inactive: > 100 µM.

With `Nc1cc(-c2ccccc2)nn1-c1nsc2ccccc12`, the GI50 is inactive: > 100 µM.

Consider `COc1ccc(/N=C/N(C)C)c(C)c1`, for which the GI50 was inactive: 23.7 µM.

On to `O=C1/C(=C/c2ccc3c(c2)OCO3)Sc2scc(-c3ccc(O)c(O)c3)[n+]21`, for which the GI50 is inactive: 13.2 µM.

On to `Cc1ccc(NC(=O)C2C3C=CC(O3)C2C(=O)O)cc1` (centres undefined), for which the GI50 was inactive: > 100 µM.

As for `CC(C)(C)N1C(=O)[N-]/[N+](=C(/C(c2ccccc2)=[N+]2/[N-]C(=O)N(C(C)(C)C)C2=O)c2ccccc2)C1=O`, the GI50 was inactive: > 100 µM.

`CCN(CC)CCCN(c1cc(OC)cc2nccnc12)S(=O)(=O)c1ccc(C)cc1`: the GI50 was inactive: > 100 µM.

Take `Cc1ccc(I)cc1N=C=S`: the GI50 is inactive: 23.9 µM.

As to `CC1(C)CC(=O)C(=CNc2nc(-c3ccccc3)cs2)C(=O)C1`, the GI50 is inactive: > 100 µM.

As to `CC(=O)NNc1nc(C)c(C(/C=C/c2ccc3c(c2)OCO3)=N/NC(=O)c2ccncc2)s1`, the GI50 is inactive: > 100 µM.

For the compound `CCOC(=O)c1c(N2CCOCC2)[nH]c(=O)c(C(c2cccs2)c2c(O)c(C(=O)OCC)c(N3CCOCC3)[nH]c2=O)c1O`, the GI50 was inactive: > 100 µM.

`COc1ccc2c(c1)[n+]([O-])c(/C(C)=N/NC(=O)CC#N)c[n+]2[O-]`: the GI50 was inactive: > 100 µM.

`CCCCCN1CCN(c2ncccn2)CC1`: the GI50 is inactive: > 100 µM.

Consider `CC(=O)/C(=C/n1ccc(=O)[nH]c1=S)C(=O)Nc1ccccc1C`, for which the GI50 was inactive: > 100 µM.

As for `Cc1c2oc3c(C)cc(F)c(C(=O)NC4C(=O)NC(C(C)C)C(=O)N5CCCC5C(=O)N(C)CC(=O)N(C)C(C(C)C)C(=O)OC4C)c3nc-2c(C(=O)NC2C(=O)NC(C(C)C)C(=O)N3CCCC3C(=O)N(C)CC(=O)N(C)C(C(C)C)C(=O)OC2C)c(N)c1=O` (centres undefined), the GI50 is active: 0.00371 µM.

`O=C1NCC2(CCN(CC3COc4ccccc4O3)CC2)N1c1ccccc1` (centres undefined): the GI50 is inactive: > 100 µM.

As to `COc1ccc([C@@H]2OC(=O)C3C2C(=O)O[C@H]3c2ccc(OC)cc2)cc1` (some centres undefined), the GI50 is inactive: > 100 µM.

As to `C=CCC12CC(=O)CCC1c1ccc(OC)cc1C2=O` (centres undefined), the GI50 is inactive: > 100 µM.

`CCCCCCCc1c(Cl)nc(Cl)nc1Cl`: the GI50 is inactive: 7.76 µM.

Consider `C[n+]1c2ccccc2c2/c(=C\C#N)c3ccccc3n21`, for which the GI50 was inactive: 7.4 µM.

For `O=[N+]([O-])C(/C=C(\Cl)[N+](=O)[O-])=C(Nc1ccccc1)Nc1ccccc1`, the GI50 was inactive: 17.8 µM.

As to `O=C(Cc1ccccc1[N+](=O)[O-])C(CO)c1ccccc1[N+](=O)[O-]` (centres undefined), the GI50 is inactive: > 100 µM.

Turning to `Cn1c2ccccc2n2c3ncccc3c(=S)c(C#N)c12`, the GI50 was inactive: > 100 µM.

In the case of `COc1cc(OC)c(C2CC=Cc3c(OC)cc(OC)c(OC)c32)cc1OC` (centres undefined), the GI50 was inactive: > 100 µM.

Consider `CCOC(=O)C(=C(SC)SC)c1nn2c(=O)cc(C)nc2s1`, for which the GI50 is inactive: 25.6 µM.

Consider `O=c1oc2ccc([N+](=O)[O-])cc2cc1-c1csc(-c2ccccc2)n1`, for which the GI50 is inactive: > 100 µM.

With `CC1=C2C(=O)NN=C2CCN1c1ccc(Br)cc1`, the GI50 is inactive: > 100 µM.

As to `C/C(CCn1[nH]c(=O)ccc1=O)=N\Nc1ccc([N+](=O)[O-])cc1[N+](=O)[O-]`, the GI50 was inactive: > 100 µM.

Turning to `COC(=O)/C(=N\Nc1nc(S)nn1N)C(C#N)c1ccc(Cl)cc1` (centres undefined), the GI50 is inactive: > 100 µM.

Turning to `N#Cc1nc(C2CC2)oc1N`, the GI50 is inactive: > 100 µM.

Consider `COC1CC(NC(=O)C(F)(F)F)C(OC(C)=O)C(C)O1` (centres undefined), for which the GI50 is inactive: > 100 µM.

Regarding `[O-]c1c[n+](CCCC[n+]2cc([O-])on2)no1`, the GI50 is inactive: > 100 µM.

For `CCOC(=O)C(CC(C)C)NC(=O)C(N)Cc1ccc(N(CCCl)CCCl)cc1` (centres undefined), the GI50 is inactive: 18.7 µM.

As for `O=C(Cc1ccccc1)NNc1nc(NNC(=O)c2ccncc2)nc(Nc2ccccc2)n1`, the GI50 was inactive: > 10 µM.

In the case of `O=C1C=C(NCCc2ccc(O)cc2)C(=O)C=C1NCCc1ccc(O)cc1`, the GI50 is inactive: > 100 µM.

As for `N#CCCN(C1=NN(C(=O)CC(=O)Nc2ccc(Cl)cc2)C(c2ccccc2)C1)c1ccc(Cl)cc1` (centres undefined), the GI50 is inactive: > 100 µM.

With `COCCOCN(C(=O)C1=CCC2(CC1)OCCO2)c1ccccc1I`, the GI50 is inactive: > 50 µM.

For `COC1(OC)c2no[n+]([O-])c2C(OC)(OC)c2c1no[n+]2[O-]`, the GI50 was inactive: 16.6 µM.

As to `C=CCNC(=S)OCCCCCCCCCC`, the GI50 is inactive: 27.3 µM.

For the compound `O=C1c2ccccc2C(=O)c2c1ccc1c2N=C(c2ccc(F)cc2)CC(c2ccc(Cl)c(Cl)c2)N1` (centres undefined), the GI50 is inactive: 16.4 µM.

Regarding `Cc1ccc(-c2sc(-c3ccc(C)cc3)c3c2C2CCC3C2)cc1`, the GI50 is inactive: > 50 µM.

`COC(=O)C1=C(C(=O)OC)C2(/N=C(\Nc3ccccc3)c3ccccc3)N(c3ccc(OC)cc3)CC(c3ccccc3)N2O1` (centres undefined): the GI50 was inactive: > 100 µM.

Consider `COc1ccc(NCC#N)cc1`, for which the GI50 is inactive: > 100 µM.

With `CC1=CC(C)C(O)C(C)/C=C\C(O)C/C=C(/C)C(=O)CC(O)C(C)\C=C/C=C\C=C/C(=O)NC2=C(O)C(=O)c3c(cc(C)c(O)c3C1=O)C2=O` (centres undefined), the GI50 is inactive: > 100 µM.

For `C/C(=N\NC(=S)NC(CCC(=O)O)C(=O)O)c1cnccn1` (centres undefined), the GI50 is inactive: > 100 µM.

`CC(O)(Cc1ccccc1C#N)Cc1ccccc1C#N`: the GI50 is inactive: > 100 µM.

In the case of `CCSc1nc2cccc([N+](=O)[O-])c2n1CC`, the GI50 is inactive: > 100 µM.

Regarding `COc1nc(N)c(/N=C/C(OC(C)=O)C(OC(C)=O)C(COC(C)=O)OC(C)=O)c(=O)n1C` (centres undefined), the GI50 was inactive: > 100 µM.

On to `CCOC(=O)N1C2C=C(C)C(C3C(C)C(=O)N31)N(C(=O)c1ccccc1)O2` (centres undefined), for which the GI50 is inactive: > 100 µM.

`COc1ccc(C(C#N)NNc2nc(C)cc(O)n2)cc1OC` (centres undefined): the GI50 is inactive: > 100 µM.

Take `CCCCNS(=O)(=O)c1ccc(-c2ccc3c(c2)-c2ccc(S(=O)(=O)NCCCC)cc2S3(=O)=O)cc1`: the GI50 was inactive: 25.2 µM.

`CC(C)(C)c1cc2c(O)c(c1)COCc1cc(C(C)(C)C)cc(c1O)COCc1cc(C(C)(C)C)cc(c1O)COC2`: the GI50 is inactive: 38.5 µM.

Consider `COC(=O)c1c(O)ccc2c1c1c(n2CCc2ccccc2)C(=O)c2ccccc2C1=O`, for which the GI50 is inactive: 15.8 µM.

Regarding `COc1cc2cc(C(=O)N3CC(CCl)c4c3cc(NCCN)c3ccccc43)[nH]c2c(OC)c1OC` (centres undefined), the GI50 is active: < 0.01 µM.

As for `CCc1nn(CN2CCOCC2)c(=S)n1/N=C/c1ccc(-c2ccc(Cl)cc2)o1`, the GI50 was inactive: > 100 µM.

In the case of `COC(=O)c1ccccc1C1CN=NC12Cc1c(C)ccc(C)c1C2=O` (centres undefined), the GI50 is inactive: > 100 µM.

On to `Nc1nc(NCC2(CO)CCC2)cc(=O)[nH]1`, for which the GI50 is inactive: > 100 µM.

Turning to `CC1(O)C(C)(O)C2(C)O[Te]3(OC12C)OC1(C)C(C)(O)C(C)(O)C1(C)O3` (centres undefined), the GI50 is inactive: 83.8 µM.

Take `Cc1ccc(S(=O)(=O)NC(CN)C(=O)O)cc1` (centres undefined): the GI50 was inactive: > 100 µM.

`N#Cc1c(-c2ccc(Cl)cc2)cc(-c2ccc(Nc3ccnc4cc(C(F)(F)F)ccc34)cc2)[nH]c1=O`: the GI50 was inactive: 41.5 µM.

For `COCC1C(=O)c2cc3c(cc2C12C=CC1(C=C2)OCCO1)OCO3` (centres undefined), the GI50 was inactive: 15 µM.

As for `CCOC(=O)C(NC(=O)c1ccc(/N=N/N(C)C)cc1)C(C)C` (centres undefined), the GI50 is inactive: > 100 µM.

For the compound `Nc1nc[n+](Cc2ccccc2CCO)c2[nH]cnc12`, the GI50 was inactive: > 100 µM.

`Cc1nc(-c2cccnc2)sc1C(=O)/C=C/c1ccc(Cl)cc1Cl`: the GI50 was inactive: > 100 µM.

For the compound `CC1=CC2(O)OC3(CC2=C(C)C)C(C)CCC13` (centres undefined), the GI50 is inactive: > 100 µM.

On to `C/C(=N\Nc1nc2ccccc2[nH]1)c1cnccn1`, for which the GI50 was active: 0.689 µM.

With `CCOC(=O)CN1C(=O)c2c(c(C)n(-c3ccccc3)c2C)C1=O`, the GI50 is inactive: > 100 µM.

Consider `COc1ccc(/[N+]([O-])=C/c2ccc(OC(=S)S)c(OC)c2)cc1`, for which the GI50 is inactive: 32.5 µM.

With `C=C1CC(OC)(C(O)C(=O)N[C@H]2OCO[C@H]3C2O[C@H](C[C@@H](CO)OC)C(C)(C)C3OC)O[C@H](C)[C@@H]1C` (some centres undefined), the GI50 was active: < 0.00931 µM.

Regarding `CC1(C)CCC[C@](C)([C@H]2CC[C@]3(C)[C@@H]2[C@H](O)C[C@@H]2[C@@]4(C)CC[C@H](O)C(C)(C)[C@@H]4[C@H](O)C[C@]23C)O1`, the GI50 was inactive: 18.9 µM.

On to `CCCCCCCCCCCCCCCC(=O)OCC1OC(n2ccc(N)nc2=O)C(O)C1O` (centres undefined), for which the GI50 was inactive: 7.66 µM.

Turning to `O=[N+]([O-])c1ccc(Oc2c(Cl)cc(S(=O)(=O)N/C(=N\O)Nc3ccc(Cl)cc3)cc2Cl)c(Cl)c1`, the GI50 is inactive: 14.9 µM.
